{"source": "PubChem BioAssay AID886", "about": "(National Center for Advancing Translational Sciences (NCATS), 2007)", "note": "Out of some 73,000 compounds screened, about 2,500 (3.4%) were called active. Inconclusive means that the source gave no clear call. Such entries were picked first, then a sample of the others. The call rests on the fitted dose curve; in most records, active means well fitted inhibition curve with a large enough effect; inconclusive means small, poorly fitted or top-dose-only effect; inactive means no such curve, though single readings can be large or run the other way. Where the call is inconclusive, the potency comes from a doubtful curve fit. Residues, ends and D or L forms follow the SMILES beside them. *: point of attachment. Boc = CC(C)(C)OC(=O)*", "data": [{"molecular_target": "3-hydroxyacyl-CoA dehydrogenase type-2 (Homo sapiens) (UniProt Q99714)", "assay": "qHTS Assay for Inhibitors of HADH2 (Hydroxyacyl-Coenzyme A Dehydrogenase, Type II); further: nearly all actives have a fitted effect of over 60% in size; further: potency means the concentration at half of the fitted maximal effect; tags describe the fitted curve by direction and shape; on activity change, negative = inhibition: on the % scale 0 is the no-effect control and ±100 the full control effect", "conditions": "recombinant HADH2, NADH fluorescence, beta-hydroxybutyryl-CoA; activity change, negative = inhibition: at 57.1 µM (top of the series)", "from_the_text": "Assay Overview: NIH Molecular Libraries Screening Centers Network [MLSCN] NIH Chemical Genomics Center [NCGC] Structural Genomics Consortium [SGC] Grant Number: None HADH2: Hydroxyacyl-Coenzyme A dehydrogenase, type II, was supplied by researchers at the Structural Genomics Consortium, Oxford University lab (PI Udo Oppermann). The mitochondrial enzyme 17-hydroxysteroid dehydrogenase type 10 (HSD17-10) previously classified as type II hydroxyacyl-CoA dehydrogenase (HADH2) catalyzes the NAD+ dependent oxidation of a variety of substrates including acyl-CoAs, androgens and neurosteroids as well as bile acids(Shafqat N, Marschall HU, Filling C, et al. Biochemical Journal. 2003;376(Pt 1):49-60). The role in neurodegeneration by binding to amyloid-peptide led to its identification (Oppermann UC, et al FEBS Letters. 1999;451(3):238-242 and Yan SD, et al. Nature. 1997;389(6652):689-695), and mutations in its gene appear to be causative for 2-methyl-3-hydroxybutyryl-CoA dehydrogenase deficiency (Ofman R, et al. American Journal of Human Genetics. 2003;72(5):1300-1307). The enzyme was produced by E.coli fermentation as His-tagged recombinant for the purpose of X-ray structure determination, and had been mass-spectrometry characterized. Inhibition of HADH2 activity was screened by utilizing beta-hydroxybutyryl coenzyme A as an electron donor and NAD+ as an electron acceptor/cofactor. An increase in the fluorescence intensity due to conversion of NAD+ to NADH was used to measure the enzyme activity.\nAssay Protocol: Buffer: 100 mM Tris-HCl pH 9.0, containing 0.01 % Tween-20. Reagents/Controls: Buffer in columns 3 and 4 as negative control (no enzyme). Substrate/cofactor solution: 1 mM NAD+ and 90 uM beta-hydroxybutyryl coenzyme A (Sigma-Aldrich, St. Louis, MO) final concentrations dispensed throughout the plate. Enzyme: 20 nM HADH2 final concentration in columns 1, 2, 5-48. Column 1 is neutral (100% activity). Column 2 contained titration of apomorphine (Sigma-Aldrich, A 4393, PubChem CID 2215, top concentration 500 uM, then 1:2 dilution in duplicate) Assay Steps: Three uL of enzyme were dispensed to 1536-well Greiner black solid bottom plates. Compounds and controls (23 nL) were transferred via Kalypsys PinTool. The plates were incubated for 15 min at room temperature, and then 1 uL of substrate/cofactor solution was added to start the reaction. The plates were immediately transferred to and read every 30 seconds for 4 min on ViewLux High-throughput CCD imager (Perkin-Elmer) using 360 nm excitation and 450 nm emission fluorescence protocol. The fluorescence intensity difference between the last and the first time points was used to compute reaction progress.", "values": [{"smiles": "COc1cc(CCC(=O)N2CCN(c3ccc(N4CCOCC4)nn3)CC2)cc(OC)c1OC", "Potency": "inconclusive: 25.1 µM [inhibitor, single point]"}, {"smiles": "c1ccc(CN2CCN(CCN3CCn4c3nc3ccccc34)CC2)cc1", "activity change, negative = inhibition": "inactive: -2.48%"}, {"smiles": "CCNc1nc(OC)nc(Oc2ccc(=O)n(-c3ccccc3)n2)n1", "activity change, negative = inhibition": "inactive: 2.38%"}, {"smiles": "COC(=O)CSc1nc2cc(Cl)ccc2c(=O)n1C1CCCC1", "Potency": "inconclusive: 39.8 µM [inhibitor, single point]"}, {"smiles": "COC(=O)CC(=O)CSc1nc2c(cc1C#N)CCCCC2", "activity change, negative = inhibition": "inactive: -19.9%"}, {"smiles": "CCC(C)(C)n1nnnc1C(c1cc2ccc(OC)cc2[nH]c1=O)N1CCc2ccccc2C1", "note": "(stereo not given)", "activity change, negative = inhibition": "inactive: -13.2%"}, {"smiles": "COc1ccc(C2C(C(C)=O)=C(C)N=c3s/c(=C\\c4cc(C)n(C)c4C)c(=O)n32)c(OC)c1", "note": "(stereo not given)", "Potency": "inconclusive: 31.6 µM [inhibitor, single point]"}, {"smiles": "CCc1ccccc1OCC(=O)NC1CCCC1", "Potency": "inconclusive: 31.6 µM [inhibitor, single point]"}, {"smiles": "Cc1cc(=O)oc2cc3c(cc12)OCCN3", "Potency": "active: 2 µM"}, {"smiles": "CC1CCCC(C)N1C(=O)CSc1nc2ncnc(N)c2[nH]1", "note": "(stereo not given)", "Potency": "inconclusive: 5.01 µM [inhibitor, partial curve, poor fit]"}, {"smiles": "Nn1c(-c2cccc(Br)c2)n[nH]c1=S", "Potency": "inconclusive: 25.1 µM [inhibitor, partial curve]"}, {"smiles": "Cc1ccc(S(=O)(=O)c2c(N)n(C)c3nc4ccccc4nc23)cc1", "Potency": "active: 31.6 µM"}, {"smiles": "O=C(c1ccccc1)c1cccn1CC(=O)N1CCN(c2ccccc2)CC1", "activity change, negative = inhibition": "inactive: -2.85%"}, {"smiles": "COc1ccc(C(c2sc3nc(C)nn3c2O)N2CCC(O)CC2)cc1OC", "note": "(stereo not given)", "activity change, negative = inhibition": "inactive: -24.4%"}, {"smiles": "CCCN(CCC)CCNS(=O)(=O)c1ccc2c(c1)oc(=O)n2C", "Potency": "inconclusive: 25.1 µM [inhibitor, single point]"}, {"smiles": "S=c1[nH]c2ncccc2o1", "Potency": "inconclusive: 39.8 µM [inhibitor, single point]"}, {"smiles": "O=C1c2cc([N+](=O)[O-])ccc2-c2ccc3c4ccc5c6c(ccc(c7ccc1c2c73)c64)C(=O)c1cc([N+](=O)[O-])ccc1-5", "Potency": "inconclusive: 3.16 µM [inhibitor, partial curve]"}, {"smiles": "CN(C)Cc1cc(O)c(O)c(CN(C)C)c1", "Potency": "active: 0.501 µM"}, {"smiles": "CCC(C)C(NC(=O)OC(C)(C)C)C(=O)NC(C(=O)N1CCCC1C(N)=O)C(C)CC", "note": "(stereo not drawn) (Boc-Ile-Ile-Pro-NH2; configuration not given here)", "Potency": "inconclusive: 39.8 µM [inhibitor, single point]"}, {"smiles": "Cc1ccccc1-c1nccc(NCCN2CCOCC2)n1", "Potency": "inconclusive: 31.6 µM [inhibitor, single point]"}]}]}
